# Assay results: PubChem BioAssay (Tox21)
# Values joined by “and” are separate entries in the source; they are usually repeats but may differ in a detail not shown here. Identical values can stand only once. This list was built around the results that the source calls inconclusive (neither active nor inactive); the mix of calls is not that of the screen. A potency beside an inconclusive call is a rough fit, not a confirmed value. Active and inactive are the calls of the source. Calls come from the whole dose curve; as a rule, active = well fitted curve in the direction sought with a large enough effect in the repeat runs; inconclusive = weak or mixed curves; inactive = no such curve, though single readings can be large; an effect the other way counts as inactive or inconclusive.
# Assay: qHTS RealTime-Glo MT Cell Viability Assay in HEK293 cells - 8 hour (AID 1224887); note: nearly all actives have a fitted effect of over 50% in size; for activity change, negative = cytotoxicity: top concentration of the series differs between compounds; % is set by controls: 0 for no effect and ±100 for the full control effect
# Settings: RealTime-Glo luminescence; series mostly up to 76.8 µM
# Summary of the method: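 600 HEK293 cells per well, dispensed already mixed with RealTime-Glo MT reagents. Compound dosing came 5 h later. The same wells were read for luminescence at 0, 8, 16, 24, 32 and 40 h of exposure at 37 C.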
# Potency is the fitted concentration of half-maximal effect; tags give direction and shape of the fitted curve.
Structure (SMILES),Potency,"activity change, negative = cytotoxicity"
O=c1c(O)c(-c2ccc(O)c(O)c2)oc2cc(O)cc(O)c12,"inconclusive: 43.7 µM [rising, partial curve] and inconclusive: 35 µM [rising, partial curve] and inconclusive: 54.9 µM [rising, partial curve]",
O=C(CCCN1CCC(O)(c2ccc(Cl)cc2)CC1)c1ccc(F)cc1,active: 13.8 µM and active: 9.52 µM,
CCCCCCCC/C=C\CCCCCCCC(=O)N(C)CC(=O)O,"inconclusive: 49 µM [cytotoxic, partial curve, poor fit]",
CN(C)c1ccc(/C=C/c2ccc([N+](=O)[O-])cc2)cc1,,inactive: -2.66% [at 6.97 µM]

# Assay: A CellTox Green Cytotoxicity Assay to monitor cytotoxicity in HEK293 cells - 16 hour (AID 1224888); note: nearly all actives have a fitted effect of over 35% in size
# Settings: CellTox Green fluorescence; series mostly up to 76.8 µM
# Summary of the method: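 Dead-cell fluorescence measured kinetically: asymmetric cyanine dye, HEK293, 600 cells/well, 5 h settle, 23 nL cpd/DMSO, 37 C, reads 0–40 h every 8 h.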
row,Structure (SMILES),Potency
1,O[C@@H](c1cc(C(F)(F)F)nc2c(C(F)(F)F)cccc12)[C@H]1CCCCN1,"inconclusive: 26.8 µM [activator, single point]"
2,CCCCCCCC/C=C\CCCCCCCC(=O)N(C)CC(=O)O,active: 24.5 µM
3,CN(C)c1ccc(/C=C/c2ccc([N+](=O)[O-])cc2)cc1,"inconclusive: 0.555 µM [activator, single point]"

# Assay: qHTS RealTime-Glo MT Cell Viability Assay in HepG2 cells - 0 hour (AID 1224889); note: nearly all actives have a fitted effect of over 50% in size
# Settings: RealTime-Glo luminescence; series mostly up to 76.8 µM
# Summary of the method: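 Tox21 10K library screened in qHTS format on HepG2 cells carrying RealTime-Glo reagents. Compounds were added after a 5 h preincubation, and the luminescent signal from continuous culture was measured repeatedly during 40 h treatment.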
row,Structure (SMILES),Potency
1,O=c1c(O)c(-c2ccc(O)c(O)c2)oc2cc(O)cc(O)c12,"inconclusive: 39 µM [cytotoxic, partial curve] [middle of 4 runs]"
2,O[C@@H](c1cc(C(F)(F)F)nc2c(C(F)(F)F)cccc12)[C@H]1CCCCN1,"inconclusive: 21.3 µM [rising, partial curve]"
3,O=C(CCCN1CCC(O)(c2ccc(Cl)cc2)CC1)c1ccc(F)cc1,"inconclusive: 13.8 µM [rising, partial curve]"
